Measurements reported in PubChem BioAssay AID623901 (Broad Institute, 2012).
Out of some 340,000 compounds screened, about 470 (0.14%) were called active. The inconclusive results got no clear call from the source; some entries with a clear call stand among them for comparison.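 The calls were made as follows: active = mean activation of 30% or more, with every replicate also reaching 30%; inconclusive = mean activation of 30% or more but some replicate falls short; inactive = the rest.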

Assay: small molecules raising miR-122 sensor signal – cell-based, Huh7 psiCHECK-miR122, Renilla luciferase, single point, primary screen (AID 623901);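 also: 0% = median of neutral control wells and 100% = median of positive control wells; higher luciferase signal means stronger suppression of miR-122 activity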
Conditions: 48 h, at 12.5 µM, active compounds read high

SMILES | activation
C[C@H](CO)N1C[C@H](C)[C@H](CN(C)Cc2ccccc2)Oc2cc(/C=C/c3ccccc3)ccc2S1(=O)=O | inconclusive: 31.2%
C[C@H]1CCCCO[C@H](CN(C)Cc2ccccc2)[C@@H](C)CN([C@@H](C)CO)C(=O)c2cc(NC(=O)Nc3ccc(C(F)(F)F)cc3)ccc2O1 | inconclusive: 30.1%
C[C@H](CO)N1C[C@H](C)[C@@H](CN(C)C(=O)c2cccnc2)Oc2ncc(-c3ccc(C(=O)N(C)C)cc3)cc2C1=O | inactive: -4.87%
C[C@H](CO)N1C[C@H](C)[C@H](CN(C)Cc2ccccn2)Oc2ncc(C#Cc3ccc(F)cc3)cc2C1=O | inactive: 8.51%
CCCNC(=O)N1[C@H](CO)[C@@H](c2ccccc2)[C@H]1CNC(=O)c1ccccc1 | inconclusive: 35.7%
O=C(CC(F)(F)F)N1C[C@@H]2[C@H](c3ccccc31)[C@@H](CO)N2C(=O)C1CCCC1 | inconclusive: 40%
CC(=O)c1cccc(S(=O)(=O)NCC2CCCCC2)c1 | active: 51%
C[C@H]1CN([C@@H](C)CO)C(=O)c2cc(C#CC3(O)CCCC3)cnc2O[C@@H]1CN(C)C(=O)Cc1ccccc1 | inactive: 0.596%
COc1cccc(-c2nc(NCCN3CCOCC3)c3ccccc3n2)c1O | inconclusive: 36.3%
C#CC(=O)N(c1ccc(OC)cc1OC)C(C(=O)NC1CCCC1)c1cccs1 (stereo unspecified) | inconclusive: 31.5%
COCC(=O)Nc1ccc2c(c1)C(=O)N(C)[C@@H]1CC[C@H](CC(=O)N3CCc4ccccc4C3)O[C@H]1CO2 | active: 36.7%
CCN1CCN(Cc2ccc(NC(=O)c3ccc(C)c(NC(=O)c4c[nH]c5cc(C(F)(F)F)ccc5c4=O)c3)cc2C(F)(F)F)CC1 | active: 32.8%
COc1ccc(N2CCN(C(=O)CSc3nnc(CNc4ccccc4)o3)CC2)cc1 | inconclusive: 37.8%
Cc1nc(C)c(C(=O)Nc2ccc(Oc3ccccc3)cc2)o1 | inconclusive: 30.9%
CCOC(=O)c1cc2c(C)n(-c3ccc(C)cc3)c(C)c2ccc1=O | inconclusive: 34.9%
Cn1cnc(CCNC(=O)C[C@@H]2CC[C@@H]3[C@H](COC[C@@H](O)CN3C(=O)Nc3ccccc3)O2)c1 | inactive: 4.36%
CCNC(=O)Nc1ccc2c(c1)C(=O)N(C)[C@H]1CC[C@H](CC(=O)NCc3ccccc3F)O[C@H]1CO2 | inconclusive: 33.3%
C[C@H](CO)N1C[C@H](C)[C@H](CN(C)Cc2ccccc2C(=O)O)Oc2ncc(C3=CCCCC3)cc2C1=O | inactive: -0.0515%
CN1C(=O)c2cc(NC(=O)c3ccccc3F)ccc2OC[C@H]2O[C@@H](CC(=O)NCc3ccc4c(c3)OCO4)CC[C@@H]21 | inconclusive: 48.3%
C[C@H]1CN([C@@H](C)CO)C(=O)c2cc(C3=CCCCC3)cnc2O[C@@H]1CN(C)Cc1cccc(F)c1 | inactive: 1.25%
COc1cccc(S(=O)(=O)N(C)C[C@@H]2Oc3ncc(C#CCC(C)C)cc3C(=O)N([C@@H](C)CO)C[C@@H]2C)c1 | inactive: 9.14%
CC(C)CC#Cc1ccc2c(c1)O[C@H](CN(C)C(=O)C1CCOCC1)[C@@H](C)CN([C@@H](C)CO)S2(=O)=O | inactive: 19.2%

SMILES | activation
CC(C)C(=O)Nc1ccc2c(c1)C(=O)N(C)[C@H]1CC[C@@H](CC(=O)NCc3ccccc3F)O[C@H]1CO2 | inconclusive: 33.3%
COCC(=O)Nc1ccc2c(c1)C(=O)N(C)[C@H]1CC[C@@H](CC(=O)NCCCN(C)C)O[C@H]1CO2 | inconclusive: 32.5%
COc1ccc(CC(NC(C)=O)C(=O)N2CCN(C(=O)N(C(C)C)C(C)C)CC2)cc1 (stereo unspecified) | inconclusive: 38.5%
CC(C)CC#Cc1cnc2c(c1)C(=O)N([C@H](C)CO)C[C@@H](C)[C@H](CN(C)C(=O)C1CCCCC1)O2 | inactive: 2.93%
CN1C(=O)c2cc(NC(=O)c3cccc(F)c3)ccc2OC[C@H]2O[C@@H](CC(=O)NC3CCC3)CC[C@H]21 | inconclusive: 33.3%
C[C@@H]1CN([C@H](C)CO)S(=O)(=O)c2ccc(/C=C/c3ccccc3)cc2O[C@@H]1CN(C)C(=O)Nc1cccc(F)c1 | inactive: -31.6%
C[C@H]1CN([C@@H](C)CO)S(=O)(=O)c2ccc(C#CC3CC3)cc2O[C@H]1CN(C)Cc1ccccn1 | inactive: 1.06%
O=C(Nc1ccccc1F)N1CCCCN2[C@@H](CO)[C@@H](c3ccc(C#Cc4ccccc4)cc3)[C@@H]2C1 | active: 37.4%
Cc1ccc(S(=O)(=O)Nc2ccc3c(c2)C(=O)N(C)[C@@H]2CC[C@@H](CC(=O)NCCc4ccncc4)O[C@@H]2CO3)cc1 | inconclusive: 38.3%
COCC(=O)NC[C@H]1[C@@H](c2ccc(C3=CCCC3)cc2)[C@@H](CO)N1C(=O)C1CC1 | inconclusive: 75%
C#CC(=O)N(c1ccc(OC)c(OC)c1)C(C(=O)NC1CCCC1)c1cccs1 (stereo unspecified) | inconclusive: 31.8%
CCCNC(=O)C[C@@H]1CC[C@@H]2[C@@H](COc3ccc(NS(=O)(=O)c4ccccc4C)cc3C(=O)N2C)O1 | inconclusive: 50%
CC(C)CC#Cc1cnc2c(c1)C(=O)N([C@H](C)CO)C[C@@H](C)[C@H](CN(C)C(=O)Cc1ccccc1)O2 | inactive: 6.14%
CC(=O)N1[C@H](CN(C)S(=O)(=O)c2ccccc2)[C@H](c2ccccc2)[C@@H]1CO | inconclusive: 41.7%
CNC(=O)C[C@@H]1CC[C@@H]2[C@@H](COc3ccc(NC(=O)c4ccccc4OC)cc3C(=O)N2C)O1 | inconclusive: 33.3%
Nc1ncc(Br)cc1S(=O)(=O)NCCc1ccccc1 | inactive: -105%
Cc1ccnc(Nc2nc(-c3c(C)nc4sccn34)cs2)c1 | inconclusive: 35.9%
Cc1ccc(-c2nnn(CC(=O)N(CC(=O)NCC3CCCO3)c3ccccc3)n2)o1 (stereo unspecified) | inconclusive: 36.9%
O=C(COC(=O)c1ccccc1)Nc1cc(Cl)ccc1Oc1ccccc1 | inconclusive: 30.1%
CN(C)CCCNC(=S)N1CCN(c2nc(-c3ccccc3)cs2)CC1 | inconclusive: 30.1%
COc1ccc(NC(=O)/C(Cl)=C(/Cl)S(=O)Cc2ccc(C)cc2)cn1 (stereo unspecified) | inconclusive: 30.4%
C[C@@H]1CN([C@H](C)CO)C(=O)c2cc(-c3ccncc3)cnc2O[C@H]1CN(C)C(=O)Cc1cccnc1 | inactive: 0.955%

SMILES | activation
CO[C@@H]1CN(C)C(=O)c2ccc(NS(C)(=O)=O)cc2OC[C@H](C)N(C(=O)CN(C)C)C[C@@H]1C | inconclusive: 36.2%
O=C(c1ccc(CNc2c(NC3CCCCC3)c(=O)c2=O)cc1)N1CCc2ccccc21 | inconclusive: 31%
COC(=O)C[C@@H]1CC[C@@H]2[C@H](COc3ccc(NS(=O)(=O)c4ccc(F)cc4)cc3C(=O)N2C)O1 | inconclusive: 38.3%
Cc1ccc(-c2cnc3c(c2)C(=O)N([C@H](C)CO)C[C@@H](C)[C@@H](CN(C)C(=O)c2ccncc2)O3)cc1 | inactive: 2.82%
COCC(=O)N(C)C[C@H]1Oc2cc(C#Cc3cccnc3)ccc2S(=O)(=O)N([C@@H](C)CO)C[C@@H]1C | active: 54.8%
C/C=C/c1ccc([C@@H]2[C@H](CO)N[C@H]2CN(CC(C)C)C(=O)c2ccccn2)cc1 | inconclusive: 91.7%
C[C@@H]1CN([C@@H](C)CO)S(=O)(=O)c2ccc(C3=CCCC3)cc2O[C@@H]1CN(C)C(=O)c1ccc(F)cc1 | active: 36.5%
CO[C@@H]1CN(C)C(=O)c2ccc(NC(=O)c3ccc(Oc4ccccc4)cc3)cc2OC[C@H](C)NC[C@@H]1C | active: 36.6%
C[C@@H]1CN([C@@H](C)CO)S(=O)(=O)c2ccc(C#CC3CC3)cc2O[C@@H]1CN(C)C(=O)c1cccc(F)c1 | active: 41.7%
CN1C(=O)c2cc(NC(=O)Nc3cccc(Cl)c3)ccc2OC[C@@H]2O[C@H](CC(=O)NCCc3ccncc3)CC[C@H]21 | inconclusive: 47.5%
CCNc1nc(N)nc(Oc2ccc(OCCOc3ccccc3)nn2)n1 | inactive: -151%
CC(C)(C)NS(=O)(=O)c1ccc2[nH]c3c(c2c1)CCCCC3 | inactive: -108%
COc1ccc(-c2cnc3c(c2)C(=O)N([C@H](C)CO)C[C@H](C)[C@@H](CN(C)C(=O)Cc2ccccc2)O3)cc1 | inactive: -8.56%
O=C(c1cccnc1)N1C[C@H]2[C@@H](c3ccccc31)[C@H](CO)N2C(=O)Nc1ccccc1 | inconclusive: 33.3%
CCn1cc(C2=NC(C)(C)CO2)c2ccccc21 | inconclusive: 42.6%
COc1cccc(C(=O)Nc2ccc3c(c2)C(=O)N(C)[C@@H]2CC[C@H](CC(=O)NCc4ccc(F)cc4)O[C@@H]2CO3)c1 | inconclusive: 43.3%
O=C(CSc1nnc2ccccn12)NNC(=O)c1ccc([N+](=O)[O-])cc1 | inconclusive: 31.1%
CN1C(=O)c2cc(NC(=O)c3ccc4c(c3)OCO4)ccc2OC[C@@H]2O[C@@H](CC(=O)O)CC[C@@H]21 | inconclusive: 41.7%
CCC(=O)Nc1ccc2c(c1)OC[C@H](C)N(C(=O)c1ccccc1F)C[C@@H](C)[C@H](OC)CN(C)C2=O | inactive: -3.57%
CC(C)C#Cc1ccc2c(c1)O[C@H](CN(C)C(=O)Nc1ccccc1)[C@H](C)CN([C@@H](C)CO)S2(=O)=O | inconclusive: 33.3%
CNC(=O)C[C@H]1CC[C@@H]2[C@H](COc3ccc(NC(=O)C(C)C)cc3C(=O)N2C)O1 | inconclusive: 60%
COC(=O)C[C@@H]1CC[C@H]2[C@@H](COc3ccc(NC(=O)c4ccc(F)c(F)c4)cc3C(=O)N2C)O1 | inconclusive: 50%
